Laboratory results as given in PubChem BioAssay AID1508642 (National Center for Advancing Translational Sciences (NCATS), 2021).
In all, about 43,000 compounds went through this assay and about 200 (0.47%) were called active. Not shown: some 12% with an inconclusive outcome. Calls come from the whole dose curve; as a rule, active = well fitted cell-killing curve with a large enough effect; inconclusive = small, poorly fitted or top-dose-only effect, or effect the other way; inactive = flat fitted curve, though single readings scatter. This is one part of the list.
% is set by controls: 0 for no effect and ±100 for the full control effect.

Assay: Cell viability qHTS assay in S16 Pmp22-F2sN cells; note: nearly all actives have a fitted effect of over 65% in size
Details: S16 Pmp22-F2sN Schwann cells (luciferase reporters placed in the Pmp22 gene) viability, CellTiter-Glo, 24 h; series mostly up to 57.5 µM; activity change, negative = cytotoxicity: at the top concentration
How it was run: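 Seed 500-1,000 S16 Pmp22-F2sN cells per well in phenol-red-free DMEM with 10% heat-inactivated FBS; pin-add 23 nL compound; incubate 24 h at 37C; add CellTiter-Glo, wait 15 min protected from light; read luminescence.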
For O=c1c(N2CCc3ccccc3C2)csc2ccccc12, the “activity change, negative = cytotoxicity” value was inactive: 6.66%. For O=C(NCCc1ccccc1)c1ccc2c(c1)N(Cc1ccccc1F)C(=O)c1ccccc1S2=O (stereo not drawn), the “activity change, negative = cytotoxicity” value was inactive: -1.86%. In the case of Cc1ccc(C2CCN(C(=O)c3cnn(-c4ccc(C)cc4)c3C3CCN(C(=O)OC(C)(C)C)CC3)C2)cc1 (stereo not drawn), the “activity change, negative = cytotoxicity” value is reported as inactive: -1.08%. With CC1=C(C(=O)Nc2cccnc2)C(c2ccccc2)n2nc(-c3ccc(O)cc3)nc2N1 (stereo not drawn) the “activity change, negative = cytotoxicity” value was inactive: -28.5%. In the case of Cc1ccc(-c2ccc(=O)n(CC(=O)Nc3cccc(C#N)c3)n2)cc1, the “activity change, negative = cytotoxicity” value is reported as inactive: -1.7%. In the case of CCOc1ccc(-c2nc3c(c(SCC(=O)N4CCCCC4)n2)Cc2ccccc2O3)cc1, the “activity change, negative = cytotoxicity” value is reported as inactive: 5.76%. For CNC(=O)C1CCC(Cn2c(=O)c3sccc3n(CC(=O)NCc3ccc(F)cc3)c2=O)CC1 (stereo not drawn), the “activity change, negative = cytotoxicity” value was inactive: 0.154%. In the case of O=C(C1CCCN(S(=O)(=O)c2ccc(Br)s2)C1)N1CCN(c2ccccc2)CC1 (stereo not drawn), the “activity change, negative = cytotoxicity” value is reported as inactive: -15.4%. In the case of CCOC(=O)CNS(=O)(=O)c1cc(-c2nnc(Nc3cccc(O)c3)c3ccccc23)ccc1C, the “activity change, negative = cytotoxicity” value is reported as inactive: 9.63%. With Cc1cc(NC(=O)c2cccs2)cc(-c2nc3cc(Cl)ccc3o2)c1O the “activity change, negative = cytotoxicity” value was inactive: 16.3%. With Cc1ccc(C)c(NC(=O)c2ccc3nc(CCc4ccccc4)oc3c2)c1 the “activity change, negative = cytotoxicity” value was inactive: 11.1%. With O=C(CSc1n[nH]c(-c2ccccc2Cl)n1)N1CCN(c2ccccc2)CC1 the “activity change, negative = cytotoxicity” value was inactive: 1.27%. In the case of CCC(=O)NCc1cc(-c2nn(C)c(=O)c3ccccc23)ccc1OC, the “activity change, negative = cytotoxicity” value is reported as inactive: 0.727%. With CC1CCCCN1C(=O)Cn1c(SCC(=O)N(C)c2ccccc2)nc2ccccc21 (stereo not drawn) the “activity change, negative = cytotoxicity” value was inactive: 9.91%. In the case of CCn1cc(CNC(=O)c2cc(-c3ccc(C)c(C)c3)nc3ccccc23)c(C)n1, the “activity change, negative = cytotoxicity” value is reported as inactive: 4.47%. With CCOc1ccccc1CNS(=O)(=O)c1ccc(-c2coc(C)n2)cc1 the “activity change, negative = cytotoxicity” value was inactive: -4.81%. With Cc1cccc(C(c2sc3nc(-c4ccco4)nn3c2O)N2CCN(c3ccccc3)CC2)c1 (stereo not drawn) the “activity change, negative = cytotoxicity” value was inactive: 7.94%. With COC(=O)c1ccccc1NC(=O)c1cc2nc(-c3ccc(OC)cc3)cc(C(F)(F)F)n2n1 the “activity change, negative = cytotoxicity” value was inactive: 6.52%. For Cc1ccc(NC(=O)c2ccc(NC(=O)N3CCSc4nc(C)cc(C)c43)cc2)c(Cl)c1, the “activity change, negative = cytotoxicity” value was inactive: 6.08%. With O=C(Cn1nc2c(cc1=O)CCCC2)Nc1ccccc1C(F)(F)F the “activity change, negative = cytotoxicity” value was inactive: 15.3%. For Cc1ccc(NC(=O)c2ccc(=O)n(CC(=O)Nc3cccc(C)c3)n2)cc1, the “activity change, negative = cytotoxicity” value was inactive: 6.78%. In the case of Cc1cccc(NC(=O)CCc2c(C)nc3nc(CNC(=O)c4cccc(F)c4)nn3c2C)c1, the “activity change, negative = cytotoxicity” value is reported as inactive: -1.38%. In the case of COc1ccc(-c2noc(CSc3nnc(-c4ccncc4)n3-c3ccc(C)cc3)n2)cc1OC, the “activity change, negative = cytotoxicity” value is reported as inactive: -17.5%. With O=C(Cn1c(=O)n(Cc2ccc3c(c2)OCO3)c(=O)c2oc3ccccc3c21)Nc1ccc(F)cc1 the “activity change, negative = cytotoxicity” value was inactive: 9.08%. With CCOc1ccccc1NC(=O)c1c(NC(=O)c2ccccc2)sc2c1CCCC2 the “activity change, negative = cytotoxicity” value was inactive: 18.2%. In the case of O=C(Cn1cc(SCc2cccc(Cl)c2)c2ccccc21)N1CCCCCC1, the “activity change, negative = cytotoxicity” value is reported as inactive: -15.7%. For CCc1ccc(Oc2c(C(F)(F)F)oc3c(CN4CCN(C)CC4)c(O)ccc3c2=O)cc1, the “activity change, negative = cytotoxicity” value was inactive: -2.82%. With COc1cccc(C(=O)NCc2nc(-c3ccccc3)no2)c1OC the “activity change, negative = cytotoxicity” value was inactive: -3.41%. For CC(C)(C)c1ccc(-c2nc3cc(NC(=O)c4cccc(Br)c4)ccc3o2)cc1, the “activity change, negative = cytotoxicity” value was inactive: 16.3%. In the case of COc1ccc(-n2ccn(CC(=O)NCCc3ccccc3)c(=O)c2=O)cc1OC, the “activity change, negative = cytotoxicity” value is reported as inactive: -5.08%. For O=C(NCCc1csc2nc(-c3ccc(F)cc3)nn12)c1cccc(C(F)(F)F)c1, the “activity change, negative = cytotoxicity” value was inactive: -2.47%. In the case of COc1cccc(CNC(=O)Cn2ncc3c4ccccc4n(Cc4ccccc4)c3c2=O)c1, the “activity change, negative = cytotoxicity” value is reported as inactive: 0.345%. With COc1ccccc1CN(Cc1ccco1)c1cnc(S(C)(=O)=O)nc1C(=O)Nc1cc(C)ccc1C the “activity change, negative = cytotoxicity” value was inactive: 3.15%. For COc1ccc(C(c2c(O)cc(C)n(Cc3ccco3)c2=O)N2CCCCC2)cc1OC (stereo not drawn), the “activity change, negative = cytotoxicity” value was inactive: -0.472%. For CC1CCN(C(=O)CSc2nc(-c3ccccc3)no2)CC1, the “activity change, negative = cytotoxicity” value was inactive: -1.11%. In the case of Cc1c(NS(=O)(=O)c2ccccc2)cc(C(C)C)c(O)c1S(=O)(=O)c1ccc(Cl)cc1, the “activity change, negative = cytotoxicity” value is reported as inactive: -12.2%. With COc1cc(C(=O)N2CCC(c3nc4ccccc4o3)CC2)cc(OC)c1OC the “activity change, negative = cytotoxicity” value was inactive: -2.63%. For CCOc1cccc(CC(=O)N2CCc3c([nH]c4ccccc34)C2c2ccc(Cl)cc2)c1OCC (stereo not drawn), the “activity change, negative = cytotoxicity” value was inactive: -9.94%. In the case of COc1ccc(S(=O)(=O)N2CCC(Oc3ccc(-n4cnnn4)cc3)CC2)cc1OC, the “activity change, negative = cytotoxicity” value is reported as inactive: -7.69%. With Oc1c(C(c2ccccc2Cl)N2CCCC2)sc2nc(-c3ccco3)nn12 (stereo not drawn) the “activity change, negative = cytotoxicity” value was inactive: 0.418%. In the case of CCOc1ccc(N(CC(=O)NCc2ccccc2Cl)S(=O)(=O)c2c(C)[nH]c(=O)[nH]c2=O)cc1, the “activity change, negative = cytotoxicity” value is reported as inactive: -1.71%. For CC(=O)Nc1ccc(NC(=O)CSc2nc3ccccc3nc2N2CCOCC2)cc1, the “activity change, negative = cytotoxicity” value was inactive: -18.2%. For CCc1ccc(NC(=O)CN(c2ccc(OC)cc2)S(=O)(=O)c2c(C)[nH]c(=O)[nH]c2=O)cc1, the “activity change, negative = cytotoxicity” value was inactive: 5.27%. With COc1ccc(-n2c(CC3C(=O)N(C)c4ccc(C)cc43)nc3ccccc3c2=O)cc1 (stereo not drawn) the “activity change, negative = cytotoxicity” value was inactive: 1.78%. With Cc1ccccc1C(=O)Nc1nnc(S(=O)(=O)N2c3ccccc3CC2C)s1 (stereo not drawn) the “activity change, negative = cytotoxicity” value was inactive: -6.24%. For O=C(NCc1ccco1)c1ccc2c(c1)N(Cc1cccc(Cl)c1)C(=O)c1ccccc1S2(=O)=O, the “activity change, negative = cytotoxicity” value was inactive: -13.4%. In the case of COc1ccc(-c2noc(CNC(=O)c3ccco3)n2)cc1, the “activity change, negative = cytotoxicity” value is reported as inactive: 15.9%. In the case of Cc1ccc(CNC(=O)CSc2cc(C)[nH]c(=O)n2)cc1, the “activity change, negative = cytotoxicity” value is reported as inactive: 5.29%.
